# The list shows a part of the results. One pool of 16,384 single-stranded DNAs met each Rep nickase domain in vitro for 1 h at 37 °C with 3 µM enzyme; only the middle of the 90-letter strands is printed. A value is the log2 ratio of uncut reads to the pool without enzyme; strong cutting gives strongly negative numbers. There is no active / inactive call. The scaling is to total reads, so uncut sequences can rise above 0 when many others are cut.
# Columns and labels:
# Assay in all cases: uncleaved DNA left, log2 of reads against the no-enzyme library (log2 ratio); higher = less cleavage (more negative = more Rep cleavage of the k-mer); sequences stand for … in CTCGTCCG…ACCGGAGA
# [1] = tested on: T1, Rep nickase domain of Muscovy duck circovirus
# T1 sequence (protein, residues 1-111, tag omitted): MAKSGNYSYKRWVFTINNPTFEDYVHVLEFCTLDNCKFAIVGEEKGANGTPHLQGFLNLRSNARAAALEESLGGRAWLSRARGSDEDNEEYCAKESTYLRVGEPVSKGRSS
# Procedure: (§1)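 A pool of 90-nt single-stranded DNAs with seven random bases just before the constant AC of the nick site (name = the seven bases) was cut by 3 µM recombinant His6-SUMO-tagged Rep nickase domain (300 nM DNA, 50 mM HEPES pH 8.0, 50 mM NaCl, 1 mM MnCl2, 1 h, 37 °C, three replicates). Uncut DNA was amplified and sequenced.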
# [2] = tested on: T2, Rep nickase domain of banana bunchy top virus
# T2 sequence (protein, residues 1-94, tag omitted): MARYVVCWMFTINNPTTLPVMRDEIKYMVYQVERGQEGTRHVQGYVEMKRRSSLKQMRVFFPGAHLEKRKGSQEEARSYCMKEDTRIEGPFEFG
# Procedure: as §1
# [3] = tested on: T3, Rep nickase domain of cabbage leaf curl virus
# T3 sequence (protein, residues 1-116, tag omitted): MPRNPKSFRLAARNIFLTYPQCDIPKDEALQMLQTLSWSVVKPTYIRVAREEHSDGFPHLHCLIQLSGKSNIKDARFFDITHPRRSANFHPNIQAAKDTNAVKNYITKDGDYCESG
# Procedure: as §1
# [4] = tested on: T4, Rep nickase domain of chickpea chlorotic dwarf virus
# T4 sequence (protein, residues 1-124, tag omitted): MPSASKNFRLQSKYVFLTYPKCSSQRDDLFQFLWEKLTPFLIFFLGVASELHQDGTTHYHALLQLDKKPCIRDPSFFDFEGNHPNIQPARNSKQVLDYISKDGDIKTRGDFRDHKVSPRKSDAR
# Procedure: as §1
# [5] = tested on: T5, Rep nickase domain of faba bean necrotic yellows virus
# T5 sequence (protein, residues 1-98, tag omitted): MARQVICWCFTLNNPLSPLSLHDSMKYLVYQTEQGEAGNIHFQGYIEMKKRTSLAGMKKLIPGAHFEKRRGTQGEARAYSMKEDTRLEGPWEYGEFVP
# Procedure: as §1
# [6] = tested on: T6, Rep nickase domain of maize striate mosaic virus
# T6 sequence (protein, residues 1-117, tag omitted): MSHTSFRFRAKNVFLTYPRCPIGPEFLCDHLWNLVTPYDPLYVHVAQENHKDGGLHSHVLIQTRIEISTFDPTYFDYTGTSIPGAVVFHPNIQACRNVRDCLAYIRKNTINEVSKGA
# Procedure: as §1
# [7] = tested on: T7, Rep nickase domain of porcine circovirus 2
# T7 sequence (protein, residues 2-116, tag omitted): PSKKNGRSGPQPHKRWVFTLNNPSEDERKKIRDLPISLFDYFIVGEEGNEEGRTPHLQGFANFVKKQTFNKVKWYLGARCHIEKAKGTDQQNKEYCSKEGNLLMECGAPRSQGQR
# Procedure: as §1
# [8] = tested on: T8, Rep nickase domain of tomato yellow leaf curl virus
# T8 sequence (protein, residues 1-136, tag omitted): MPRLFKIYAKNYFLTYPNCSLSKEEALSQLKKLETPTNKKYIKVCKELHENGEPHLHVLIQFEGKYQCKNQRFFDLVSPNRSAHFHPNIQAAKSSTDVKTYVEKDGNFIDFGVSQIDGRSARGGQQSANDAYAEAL
# Procedure: as §1
# [9] = tested on: T9, Rep nickase domain of wheat dwarf virus
# T9 sequence (protein, residues 1-137, tag omitted): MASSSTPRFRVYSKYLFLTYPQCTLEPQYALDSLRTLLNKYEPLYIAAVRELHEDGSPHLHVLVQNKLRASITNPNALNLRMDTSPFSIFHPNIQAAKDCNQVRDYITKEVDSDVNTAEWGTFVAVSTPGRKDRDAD
# Procedure: as §1
Sequence,uncleaved DNA left (log2) [1],uncleaved DNA left (log2) [2],uncleaved DNA left (log2) [3],uncleaved DNA left (log2) [4],uncleaved DNA left (log2) [5],uncleaved DNA left (log2) [6],uncleaved DNA left (log2) [7],uncleaved DNA left (log2) [8],uncleaved DNA left (log2) [9]
CGTCTGA,-0.177,-0.037,-0.0705,0.535,-0.197,1.42,0.0633,0.0545,0.0324
ACGCCAT,0.00479,0.0919,-0.2,-0.313,0.0126,-0.195,0.108,0.0338,0.0224
ATCTCTG,-0.0604,-0.0574,-0.17,0.0803,-0.0604,-0.148,-0.0188,-0.123,-0.0455
TATGCAT,0.0159,0.0103,-0.273,-1.05,0.105,-0.704,-0.00342,0.114,-0.0462
TTTCGGT,-0.0358,-0.0718,0.382,0.765,-0.159,1.31,-0.00728,-0.106,-0.125
ACTTCGC,0.0141,-0.0135,-0.726,-0.77,-0.0427,-1.16,0.00528,-0.00848,-0.000651
GTCGGGC,0.0265,0.0414,0.481,0.961,-0.0507,1.57,0.082,0.0369,0.0207
GGAAAGG,0.0589,-0.00298,0.489,1.34,-0.0552,1.29,0.0897,-0.119,0.117
ACTCACC,-0.0614,0.0686,-0.0874,-0.285,-0.0554,-0.328,0.0406,-0.0206,-0.0287
AGGTCCC,0.162,-0.0408,0.221,0.599,0.0546,0.786,0.0886,0.19,0.199
TCAACTA,-0.0183,0.00745,-0.136,-2.25,0.0206,-0.473,-0.146,-0.00984,0.0296
GTATAAT,-0.401,0.0982,0.326,0.706,0.0992,1.72,-0.996,0.167,0.0791
CCTACTC,-0.121,-0.24,-0.201,-2.27,-0.0965,-0.657,-0.122,-0.215,-0.232
AGTGGCG,0.188,0.000751,-0.616,-0.342,0.0663,-0.693,0.18,0.0223,-0.0948
CGCCCAG,-0.0876,-0.128,-0.647,-0.335,-0.201,-0.734,-0.00573,-0.0258,-0.178
ACGTGGT,-0.342,-0.214,-0.436,-0.696,-0.192,-0.584,-2.35,-0.164,-0.261
GTGGTAA,0.0467,0.0725,0.382,0.944,-0.0951,1.84,0.0533,0.0781,0.132
CACCATA,0.0641,0.0646,-0.271,-2.25,0.145,-0.826,-0.249,0.0191,0.0326
TCATTAC,-0.0848,-0.108,-0.354,-1.85,-0.0442,-1.34,-0.306,-0.0906,-0.2
CGATCTG,-0.0259,-0.123,-0.0943,0.604,-0.0816,1.66,-0.0766,-0.0391,0.0661
AAGGCCA,0.0546,0.148,0.0451,-0.202,-0.0181,0.331,-0.127,0.0947,0.0386
CACTCAC,-0.104,-0.0912,-0.35,-0.767,-0.147,-0.876,-0.822,-0.0666,-0.0909
ACCAACG,0.086,0.0403,-0.501,0.558,-0.0207,-0.281,0.267,-0.0223,-0.0238
TGTCGAG,-0.134,-0.101,-0.169,-0.0562,-0.036,-0.765,-0.11,-0.0998,-0.0825
CATTGGT,-2.07,-2.62,-0.734,-0.918,0.00384,-1.13,-3.31,0.0696,-0.0922
TCATTGC,-0.131,-0.179,-0.396,0.791,-0.0123,0.186,-0.0382,0.0393,-0.102
CAGATAA,-0.0176,0.123,-0.174,-0.381,0.0234,-0.5,-0.151,0.0571,0.00461
TTCTGAT,-0.202,0.0582,0.212,0.117,0.199,0.895,-2.28,-0.0428,0.111
CAATAAC,0.0448,0.0634,-1.59,-2.94,0.0911,-1.09,0.11,0.0214,-0.143
GTGACTG,-0.0301,0.0691,0.129,0.819,0.0922,1.79,0.00852,0.0382,0.0963

# Reference: the supplement of paper PMC7826260
